The text below walks through data of article PMC9911399, “Two distinct binding modes provide the RNA-binding protein RbFox with extraordinary sequence specificity”.

Where a chain is given by its changes, count along the chain named. The list shows a part of the results.

The labels stand for the following.
T1: RBFOX1 RRM (Homo sapiens, UniProt Q9NWB1 109-208)
T1 sequence: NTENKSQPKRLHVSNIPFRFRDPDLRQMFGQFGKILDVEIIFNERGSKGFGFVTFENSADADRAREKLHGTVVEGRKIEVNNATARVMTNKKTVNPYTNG

B1: GCGUGCU (DNA:RNA)
RNA: GGGAGACCGGAAUUCAGAUUGUCCGCGUGCUUUAAAUCCCGUCGUAGCCACCA
DNA 1: CAATCTGAATTCCGGTCTCCC
DNA 2: TGGTGGCTACGACGGGATT
B2: UACGCCA (DNA:RNA)
RNA: B1 RNA with G25U, C26A, G27C, U28G, G29C, U31A
DNA 1: CAATCTGAATTCCGGTCTCCC
DNA 2: TGGTGGCTACGACGGGATT
B3: CGUUGAG (DNA:RNA)
RNA: B1 RNA with G25C, C26G, G27U, C30A, U31G
DNA 1: CAATCTGAATTCCGGTCTCCC
DNA 2: TGGTGGCTACGACGGGATT
B4: AGGUCCU (DNA:RNA)
RNA: B1 RNA with G25A, C26G, G29C
DNA 1: CAATCTGAATTCCGGTCTCCC
DNA 2: TGGTGGCTACGACGGGATT
B5: GUGCCCC (DNA:RNA)
RNA: B1 RNA with C26U, U28C, G29C, U31C
DNA 1: CAATCTGAATTCCGGTCTCCC
DNA 2: TGGTGGCTACGACGGGATT
B6: GCACCCC (DNA:RNA)
RNA: B1 RNA with G27A, U28C, G29C, U31C
DNA 1: CAATCTGAATTCCGGTCTCCC
DNA 2: TGGTGGCTACGACGGGATT
B7: CCGUCUA (DNA:RNA)
RNA: B1 RNA with G25C, G29C, C30U, U31A
DNA 1: CAATCTGAATTCCGGTCTCCC
DNA 2: TGGTGGCTACGACGGGATT
B8: GACAUAU (DNA:RNA)
RNA: B1 RNA with C26A, G27C, U28A, G29U, C30A
DNA 1: CAATCTGAATTCCGGTCTCCC
DNA 2: TGGTGGCTACGACGGGATT
B9: AGCUGAC (DNA:RNA)
RNA: B1 RNA with G25A, C26G, G27C, C30A, U31C
DNA 1: CAATCTGAATTCCGGTCTCCC
DNA 2: TGGTGGCTACGACGGGATT
B10: AAAUAAC (DNA:RNA)
RNA: B1 RNA with G25A, C26A, G27A, G29A, C30A, U31C
DNA 1: CAATCTGAATTCCGGTCTCCC
DNA 2: TGGTGGCTACGACGGGATT
B11: GUGUCGU (DNA:RNA)
RNA: B1 RNA with C26U, G29C, C30G
DNA 1: CAATCTGAATTCCGGTCTCCC
DNA 2: TGGTGGCTACGACGGGATT
B12: UACUCUU (DNA:RNA)
RNA: B1 RNA with G25U, C26A, G27C, G29C, C30U
DNA 1: CAATCTGAATTCCGGTCTCCC
DNA 2: TGGTGGCTACGACGGGATT
B13: CCGUCCC (DNA:RNA)
RNA: B1 RNA with G25C, G29C, U31C
DNA 1: CAATCTGAATTCCGGTCTCCC
DNA 2: TGGTGGCTACGACGGGATT
B14: GUGUAAC (DNA:RNA)
RNA: B1 RNA with C26U, G29A, C30A, U31C
DNA 1: CAATCTGAATTCCGGTCTCCC
DNA 2: TGGTGGCTACGACGGGATT
B15: GGUCCUU (DNA:RNA)
RNA: B1 RNA with C26G, G27U, U28C, G29C, C30U
DNA 1: CAATCTGAATTCCGGTCTCCC
DNA 2: TGGTGGCTACGACGGGATT
B16: CGCUUCG (DNA:RNA)
RNA: B1 RNA with G25C, C26G, G27C, G29U, U31G
DNA 1: CAATCTGAATTCCGGTCTCCC
DNA 2: TGGTGGCTACGACGGGATT
B17: ACGUAAG (DNA:RNA)
RNA: B1 RNA with G25A, G29A, C30A, U31G
DNA 1: CAATCTGAATTCCGGTCTCCC
DNA 2: TGGTGGCTACGACGGGATT
B18: ACAACAA (DNA:RNA)
RNA: B1 RNA with G25A, G27A, U28A, G29C, C30A, U31A
DNA 1: CAATCTGAATTCCGGTCTCCC
DNA 2: TGGTGGCTACGACGGGATT
B19: ACCGCCA (DNA:RNA)
RNA: B1 RNA with G25A, G27C, U28G, G29C, U31A
DNA 1: CAATCTGAATTCCGGTCTCCC
DNA 2: TGGTGGCTACGACGGGATT
B20: CGCCAGA (DNA:RNA)
RNA: GGGAGACCGGAAUUCAGAUUGUCCCGCCAGAUUAAAUCCCGUCGUAGCCACCA
DNA 1: CAATCTGAATTCCGGTCTCCC
DNA 2: TGGTGGCTACGACGGGATT

This test has as its target T1, RBFOX1 RRM. The test can be described thus: EMSA; HiTS-Eq, 1 nM pool, 10 min; buffer printed only for the single-RNA assays: 10 mM Tris pH 7.5, 150 mM NaCl, 3.4 mM EDTA, 0.001% NP-40, 30 C. The following applies: tags: His6 N-terminal (pET28a); label: 5' 32P. A digest of the protocol:
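Purified RbFox RRM (wild type or mutant) was equilibrated for 10 min in 50 µL with 1 nM of a 5′-radiolabelled pool of RNA with 7 randomized nucleotides, its flanks annealed to DNA oligonucleotides, across increasing protein concentrations. Free RNA was separated by 8% native PAGE, excised, reverse-transcribed, PCR-barcoded and sequenced on an Illumina HiSeq 2500. Relative association constants came from read-count changes of each variant against the control reaction, normalised to the cognate motif.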
On to B1, for which the binding signal was 0.0251 KA relative to UGCAUGU.

In the case of B2, the binding signal was 0.00185 KA relative to UGCAUGU. With B3, the binding signal was 0.0235 KA relative to UGCAUGU. Turning to B4, the binding signal was 0.0111 KA relative to UGCAUGU. Consider B5, for which the binding signal is 0.00682 KA relative to UGCAUGU. As to B6, the binding signal was 0.0059 KA relative to UGCAUGU.

As to B7, the binding signal was 0.00299 KA relative to UGCAUGU. Turning to B8, the binding signal was 0.00404 KA relative to UGCAUGU. For B9 the value was 0.0156 KA relative to UGCAUGU.

Turning to B10, the binding signal is 0.0016 KA relative to UGCAUGU. Next, B11: 0.0195 KA relative to UGCAUGU; B12: 0.00553 KA relative to UGCAUGU; B13: 0.00945 KA relative to UGCAUGU. Consider B14, for which the binding signal is 0.014 KA relative to UGCAUGU. B15: the binding signal is 0.0031 KA relative to UGCAUGU. Next, B16: 0.0157 KA relative to UGCAUGU; B17: 0.0103 KA relative to UGCAUGU.

Regarding B18, the binding signal was 0.000964 KA relative to UGCAUGU.

Take B19: the binding signal is 0.00143 KA relative to UGCAUGU. As to B20, the binding signal was 0.0109 KA relative to UGCAUGU.
